The shares of active, inactive and inconclusive entries below differ from those in the screen. A potency beside an inconclusive call is a rough fit, not a confirmed value. Calls of active or inactive are those of the source. Calls come from the whole dose curve; as a rule, active = well fitted cell-killing curve with a large enough effect; inconclusive = small, poorly fitted or top-dose-only effect, or effect the other way; inactive = no such curve, though single readings can be large or run the other way.
Test: Viability qHTS for spleen associated tyrosine kinase inhibitor (SYKi) naive MV4-11 cells (AID 1963823); note: nearly all actives have a fitted effect of over 40% in size
Conditions: MV4-11 AML viability, CellTiter-Glo luminescence, 72 h; viability (% of control): at 45 µM (top of the series)
Method in brief: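 qHTS, SYK inhibitor-naive MV4-11; 500 cells/well; 72 hr compound exposure, 37 C; CellTiter-Glo added, 10 min RT; luminescence read.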
Potency is the fitted concentration of half-maximal effect; tags give direction and shape of the fitted curve.

Row | SMILES | Potency | viability (% of control)
1 | c1ccc(-c2cnc(Nc3ccc(OCCN4CCCC4)cc3)s2)cc1 | inconclusive: 0.0103 µM [cytotoxic, full curve] | 
2 | Brc1ccc([C@H]2CN3CCSC3=N2)cc1 |  | inactive: 67.8%
3 | CC1=C2C[C@H]3OC(=O)[C@H](O)[C@@]4(O)[C@@H](C)[C@@H](O)[C@H](O)C([C@@]2(C)[C@H](O)[C@@H](O)C1)[C@@]34C (some centres not stated) | inconclusive: 12.8 µM [cytotoxic, partial curve] | 
4 | COc1ccc2c(c1)C(C(=O)N(Cc1ccc(N(C)C)cc1)c1ccc(C(C)C)cc1)CCC2 (configuration not stated) | active: 16.4 µM | 
5 | Cc1c(C(=O)NCCCO)cnn1-c1nc(-c2cccc(C(F)(F)F)c2)cs1 | active: 14.6 µM | 
6 | Oc1cc(CNC(=S)/C=C/c2cc(O)c(O)c(Br)c2)cc(O)c1O | active: 1.84 µM | 
7 | CC(C)C[C@@H](C(=O)N[C@@H](Cc1ccc(OCc2ccccc2)cc1)C(=O)NC(C)(C)C)N(C)Cc1ccc(C(C)(C)C)cc1 |  | inactive: 54.8%
8 | COc1c2occc2c(OC)c2c(=O)cc(C)oc12 |  | inactive: 111%
9 | O=c1nc(-c2ccccn2)sc2ccccc12 | active: 1.84 µM | 
10 | OC[C@H]1O[C@@H](OCCc2ccc(O)cc2)[C@H](O)[C@@H](O)[C@@H]1O |  | inactive: 63.5%
11 | Cc1cccc(C)c1NC(=O)CN1CCCC1 | inconclusive: 13.3 µM [cytotoxic, partial curve, poor fit] | 
12 | CC(C)(O)/C=C/C(=O)[C@](C)(O)[C@H]1[C@H](O)C[C@@]2(C)[C@@H]3CC=C4[C@@H](C[C@H](O[C@@H]5O[C@H](CO)[C@@H](O)[C@H](O)[C@H]5O)C(=O)C4(C)C)[C@]3(C)C(=O)C[C@]12C | inconclusive: 4.32 µM [cytotoxic, partial curve] | 

From PubChem BioAssay (NCATS)
